# Test results reported in PMC6919601, “Identification of Plasmodium dipeptidyl aminopeptidase allosteric inhibitors by high throughput screening” (PLoS ONE, 2019).
# Several values for one entry are separate records, joined by “and”; a condition that tells them apart may be missing. Equal values may be shown once. In all, about 110,000 compounds went through this assay and about 230 (0.21%) showed an effect of 50% or more. The list shows a part of the results.
# Molecular target: DPAP1 (Plasmodium falciparum, UniProt Q8IIJ9)
# Assay: primary screen, percent inhibition; read by cleavage of a fluorogenic dipeptide substrate; higher = more effect of the substance
# Design: species or system P. falciparum D10 trophozoite lysates; single well
# 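Further: 30 min substrate incubation versus DMSO and 10 µM JCP410 controls.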
# Sequence of DPAP1 (Q8IIJ9 whole entry, looked up): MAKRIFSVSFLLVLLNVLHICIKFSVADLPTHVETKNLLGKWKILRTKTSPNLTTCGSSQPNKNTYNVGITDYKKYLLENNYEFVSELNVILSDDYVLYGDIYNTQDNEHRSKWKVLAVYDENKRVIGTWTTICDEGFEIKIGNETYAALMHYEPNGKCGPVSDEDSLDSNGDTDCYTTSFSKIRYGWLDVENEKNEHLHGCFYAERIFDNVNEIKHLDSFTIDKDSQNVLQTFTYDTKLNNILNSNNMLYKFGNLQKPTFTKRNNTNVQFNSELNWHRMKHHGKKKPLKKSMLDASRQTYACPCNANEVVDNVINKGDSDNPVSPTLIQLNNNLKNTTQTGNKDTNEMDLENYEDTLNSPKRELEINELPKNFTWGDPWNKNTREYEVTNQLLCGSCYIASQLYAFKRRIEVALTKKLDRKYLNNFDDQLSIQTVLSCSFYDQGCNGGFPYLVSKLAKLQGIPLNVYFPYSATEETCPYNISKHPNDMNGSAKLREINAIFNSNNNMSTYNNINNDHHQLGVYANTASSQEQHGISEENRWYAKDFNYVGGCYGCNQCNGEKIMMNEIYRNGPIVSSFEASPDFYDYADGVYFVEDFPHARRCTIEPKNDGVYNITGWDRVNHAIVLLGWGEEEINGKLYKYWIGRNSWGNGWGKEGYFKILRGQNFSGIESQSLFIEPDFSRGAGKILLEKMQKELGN
row,Compound,% Inhibition @ 10 uM
1,CC1(C)OC(C)(C)/C(=C/c2c(Cl)cccc2Cl)C1=O,-0.703%
2,O=C1NCCN/C1=C\C(=O)c1cccs1,0.565%
3,Cn1c(C(=O)N2CCC(C(=O)NC3CCCc4ccccc43)CC2)cc2sccc21 (stereo not drawn),4.95%
4,C=CCN(C(=O)c1oc(=O)c2ccccc2c1-c1ccccc1)C1CCCCC1,3.96%
5,Cc1c(Cl)cccc1-n1nc(C)c2c(C)cc(=O)n(CC(=O)N3CCOCC3)c21,-0.477%
6,COc1ccc(C2=N/C(=C\c3ccc(C)o3)C(=O)O2)c(Cl)c1,6.56%
7,CCOc1ccc(CN2CCN(c3ccccc3)CC2)cc1,-1.77%
8,O=S(=O)(NCc1ccccc1)c1ccccc1,2.94%
9,COc1ccc(CNCc2ccccc2F)cc1,20.5%
10,COc1c(Cl)cc(Cl)cc1C(=O)Nc1ccc(CN2CCOCC2)cc1,-3.28%
11,CC(C)S(=O)(=O)C1=NSC2=NC(=O)/C(=C\c3ccc(O)c(Br)c3)C(=N)N21,-5.27%
12,COc1ccccc1CN1CCN(Cc2ccncc2)CC1,1.35%
13,CC1CN(C(=O)c2cc3c(=O)n4ccccc4nc3n2C)CC(C)O1 (stereo not drawn),-1.55%
14,COc1ccccc1/C=C(\NC(=O)c1cccc(C)c1)C(=O)Nc1ccccn1,-7.23%
15,CC1CCCC(C)N1C(=O)Nc1cccc(Cl)c1 (stereo not drawn),-6.82%
16,COCC(C)NC1CCN(CCc2ccccc2)CC1 (stereo not drawn),1.57%
17,COc1cc(OC)cc(C(=O)Nc2cc3c(cc2C(C)=O)OCO3)c1,1.59%
18,COC(=O)C1=C(C)N(C(C)c2ccccc2)C(=O)/C1=C\c1ccc(F)cc1 (stereo not drawn),-5.14%
19,Cc1ccc(-c2nc3ccccc3[nH]2)cc1N,0.177%
20,CCN(CC)CCNC(=O)COc1ccc(F)cc1,-5.19%
21,CCc1nnc(SC(CC)C(=O)NCCOC)c2cc3sccc3n12 (stereo not drawn),3.88%
22,CN(CC(=O)NC1CCCCCC1)S(=O)(=O)c1ccc(F)cc1,3.17%

row,Compound,% Inhibition @ 10 uM
1,CN(C)c1ccc2c(c1)OC(N)=C(C#N)C2c1ccc(Br)cc1 (stereo not drawn),-2.89%
2,CSc1nc(N)nc2sc(C(=O)c3ccc(Cl)cc3)c(N)c12,10.8%
3,c1csc(-c2csc3ncnc(N4CCCC4)c23)c1,-4.62%
4,CC1CCC(N(C)CC(O)c2ccccc2)C1 (stereo not drawn),-1.64%
5,Cn1cc(C(=O)Nc2ccc(Oc3ccccc3)cc2)cn1,-4.59%
6,Cc1oc2c(C)c3oc(=O)c(CCC(=O)N4CCCC4)c(C)c3cc2c1C,5.68%
7,Cc1cc(NC(=O)CN2CCN(C(=O)c3ccccc3)CC2)c2ccccc2n1,-7.35%
8,CC(=O)Nc1ccc(N2C(=O)c3cccc4c(C(=O)c5ccccc5)ccc(c34)C2=O)cc1,6.43%
9,O=C(/C=C/c1ccc(Cl)cc1)NCc1ccccc1,3.9% and -1.62%
10,Cc1ccc(C(=O)Nc2ccccc2C(=O)O)cc1N,2.25%
11,O=C(NCCc1nc2ccccc2n1CCCOc1ccccc1)c1ccco1,2.14%
12,CC1CCc2c(sc(NC(=O)c3ccc4c(c3)OCO4)c2C(N)=O)C1 (stereo not drawn),1.88%
13,CC1CCN(S(=O)(=O)c2ccc3[nH]c4c(c3c2)CCCC4)CC1,0.434%
14,N=c1c(S(=O)(=O)c2ccc(Cl)cc2)cc2c(=O)n3ccccc3nc2n1C1CCCCC1,1.91%
15,Cc1cc(C(=O)N2CC3(C)CC2CC(C)(C)C3)on1 (stereo not drawn),-7.13%
16,O=C1C2ON(c3ccc(Br)cc3)C(c3cccnc3)C2C(=O)N1C1CCCCC1 (stereo not drawn),-2.54%
17,COc1ccc(OCC(O)CN2CCOCC2)cc1 (stereo not drawn),1.27%
18,CC1(C)CC2=Nc3nc(SCc4ccccc4)nn3C(c3cccs3)C2=C(O)C1 (stereo not drawn),-2.9%
19,COc1ccccc1C1=N/C(=C\c2sccc2C)C(=O)O1,-0.251%
20,CCOc1cc(Cl)c(C(C)NC(=O)c2cccc(OC)c2)cc1OCC (stereo not drawn),-1.28%
21,CCCCN(CCCC)CCNC(=O)CNC(=O)c1cccs1,0.387%
22,Clc1ccc(CSc2nc3cccnc3[nH]2)cc1Cl,-1.02%

row,Compound,% Inhibition @ 10 uM
1,COc1ccc(CN2C(=O)c3cccnc3C2=O)cc1S(=O)(=O)N1CCCCC1C (stereo not drawn),2.76%
2,Cc1ccc(C)c(CN2CCOCC2)c1,-2.02%
3,Fc1cccc(Cl)c1CN1CCN(c2cccc(Cl)c2)CC1,-1.64%
4,Cc1cccc(NC(=O)C(C)Oc2ccccc2)c1 (stereo not drawn),0.843%
5,O=C(c1cnn(-c2ccccc2)c1-n1cccc1)N1CCC(C(=O)N2CCOCC2)CC1,0.137%
6,CCOC(=O)N1CCN(c2nc(-c3ccccc3)cc(C(F)(F)F)n2)CC1,-3.79%
7,c1ccc(-c2cc(N3CCOCC3)n3c(n2)nc2ccccc23)cc1,3.88%
8,CC(C)C[C@H](NC(=O)c1ccc(-c2ccccc2NS(C)(=O)=O)c(Cl)c1)C(=O)NCC#N,-3.48%
9,CCSc1cc(N2CCCC2)nc(-c2ccccc2)n1,-0.795%
10,O=C(NC(=S)N1CCCCCC1)c1ccco1,6.03%
11,O=C(NC1CCN(Cc2ccccc2)CC1)c1cnn(-c2ccccc2)c1-n1cccc1,-1.58%
12,O=C(O)c1ccc(CN2CCN(c3ccccc3F)CC2)cc1,4.04%
13,c1ccc(-c2nnn3c2nc(N2CCc4ccccc4C2)c2ccccc23)cc1,3.59%
14,CC(C)(C)C(=O)N1CCCC1C(=O)Nc1ccccc1 (stereo not drawn),1.35%
15,COCCCNC(=O)c1cnn(-c2ccc(F)cc2)c1C1CCN(C(=O)OC(C)(C)C)CC1,-2.37%
16,CCC(=O)c1c(C)nc2n(C)c3ccccc3n12,-4.98%
17,COc1ccc(-c2cn3c(C)c(C(=O)Nc4ccncc4)sc3n2)cc1,-1.89%
18,Cc1ccc(CN(Cc2ccco2)C(=O)c2ccc(C)cc2)cc1,-0.45%
19,O=C(Cn1c2ccccc2c2cnnc(O)c21)NCC1CCCO1 (stereo not drawn),4.55%
20,O=C(O)CN(CC(=O)O)Cc1c(O)cccc1O,-4.61%
21,CC1=C(C(=O)OC2CCCCCCC2)C(c2ccccc2Br)NC(=O)N1 (stereo not drawn),7.05%
22,CCCOc1cccc(C2C(C(=O)c3ccc(C)o3)=C(O)C(=O)N2c2nc(C)c(C(C)=O)s2)c1 (stereo not drawn),3.29%
